Assay results: PubChem BioAssay AID1347417 (National Center for Advancing Translational Sciences (NCATS), 2020)
Among all 120,000 compounds or so, about 5,300 (4.4%) were called active. The shares of active, inactive and inconclusive entries below differ from those in the screen. Calls follow the shape of the dose curve; as a rule, active = well fitted inhibition curve with a large enough effect; inconclusive = small, poorly fitted or top-dose-only effect; inactive = no such curve, though single readings can be large or run the other way. A potency beside an inconclusive call is a rough fit, not a confirmed value.

Experiment: qHTS Primary assay for Inhibitors of Plasmodium falciparum Dd2 growth in vitro; also: nearly all actives have a fitted effect of over 65% in size;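 as to activity, negative = inhibition: plate controls were DMSO vehicle for no effect and reference drug for full effect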
Conditions: P. falciparum Dd2 growth, SYBR Green, 72 h; activity, negative = inhibition: at 28.9 µM (top of the series) unless noted; series mostly up to 28.9 µM
In short: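 Readout: SYBR Green fluorescence, 485 nm excitation, 535 nm emission, after ~16 h lysis at 37C. Before that, Dd2-infected red cells (2.5% hematocrit) grew 72 h with compound, 29 uM top final concentration.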
Potency is read from the fitted curve at half-maximal effect; tags tell the direction and shape of the fitted curve.

SMILES	Potency	activity, negative = inhibition	outcome
COc1ccc(-n2c(=O)c3c(n2Cc2ccccc2)CN(Cc2c[nH]c4ccccc24)CC3)cc1	inconclusive: 5.01 µM [inhibitor, partial curve, poor fit]	–	–
CCn1ncc(N2CCC(NC(=O)C(C)(C)C)CC2)cc1=O	–	inactive: 1.25%	–
CC1=C[C@@H](CNc2ccccn2)[C@H](C(C)C)C[C@H]1Cc1nnc(-c2cncn2C)o1	active: 5.62 µM	–	–
COc1ccc(NC(=O)N[C@H]2CCN3C(=O)[C@@H](Cc4ccc(Cl)cc4)NC(=O)[C@@H]3C2)cc1	–	–	inactive
COCCNC(=O)C1COC2(CCN(C(=O)c3ccc(Cl)cc3)CC2)N1C(=O)c1ccccc1C (centres undefined)	inconclusive: 1.78 µM [inhibitor, full curve, poor fit]	–	–
CCOc1ccccc1NC(=O)CSc1nc2c([nH]c3ccccc32)c(=O)n1-c1ccccc1	inconclusive: 11.2 µM [inhibitor, single point]	–	–
N#Cc1ccccc1OCC1CN(Cc2cccc(C(F)(F)F)c2)C(=O)c2c(ccnc2-c2ccc(OCC(=O)O)cc2)O1 (centres undefined)	–	–	inactive
CCOC(=O)CC(=O)CSc1nc2ccccc2c(=O)n1-c1ccc(C(=O)NCCOC)cc1	inconclusive: 11.2 µM [inhibitor, single point]	–	–
COc1ccc(NC(=O)NC[C@H]2C[C@@H]3CCN2C[C@@H]3c2cc(-c3cccs3)nn2C)cc1	inconclusive: 10 µM [inhibitor, single point]	–	–
Cc1ccc(C2(O)CCN(C(=O)[C@@H](N)Cc3cnc[nH]3)CC2)nc1	–	inactive: -14.1%	–
COC(=O)c1ccc(C(=O)OC)c(NC(=O)N2CC3CCCN3c3ccccc32)c1 (centres undefined)	inconclusive: 11.2 µM [inhibitor, single point]	–	–
CCC(=O)N(C1CCOCC1)C1CCN(S(=O)(=O)c2ccccc2CC)CC1	–	–	inactive
CCCc1cc(C(=O)N2CCOC(c3ccc(Cl)c(Cl)c3)C2)ccn1 (centres undefined)	–	inactive: -20.4%	–
Cc1ccc(OCc2nc(-c3ccc(C(=O)N4CCN(c5cc(Cl)ccc5C)CC4)cc3)oc2C)cc1	–	inconclusive: -138% [inhibitor] [at 5.79 µM]	–
COc1ccccc1-c1cnc2n[nH]c(-c3sccc3C)c2n1	inconclusive: 15.8 µM [inhibitor, partial curve]	–	–
O=c1cc(-c2ccccn2)oc2c(-c3cn[nH]c3)nccc12	inconclusive: 22.4 µM [inhibitor, single point]	–	–
O=S(=O)(c1ccccc1)c1nc(-c2cccs2)oc1SCc1ccccc1Cl	inconclusive: 17.8 µM [inhibitor, single point]	–	–
Cc1nc(C2CC(NC(=O)c3cnc(N)nc3C(F)(F)F)C2)cc(=O)[nH]1 (centres undefined)	–	inactive: -3.54%	–
CC(=O)N1CCC(NC[C@H]2O[C@@H]3C[C@@H](CC(=O)N4CCC(F)(F)C4)O[C@@H]3[C@@H]2O)CC1	–	inactive: 35.3% [at 44.1 µM]	–
COCCC(=O)N1CCC2(CC1)C(=O)Nc1cc(OCc3ccccc3)c(OC)cc12	–	–	inactive [at 44.1 µM]
CCc1c(C(=O)N2CCC3(CC2)c2ccccc2CC3O)csc1C (centres undefined)	inconclusive: 11.2 µM [inhibitor, single point]	–	–
OC1(c2csc(CN3CCOCC3)n2)CCN(Cc2ccccc2C(F)(F)F)CC1	inconclusive: 3.98 µM [inhibitor, single point]	–	–
O=C1CCCN1CC(=O)N1C[C@@H](COCC2CC2)[C@H](c2ccncc2)C1	–	inactive: 35.9%	–

SMILES	Potency	activity, negative = inhibition	outcome
Cc1ccc(C(=O)NC2CCN(c3cc(-c4ccccc4)[nH]n3)CC2)c(C)c1	–	–	inactive
Cn1nc(C(=O)N2CCC(Cc3nc(C4CC4)n[nH]3)C2)c2ccccc21 (centres undefined)	inconclusive: 3.98 µM [inhibitor, partial curve, poor fit]	–	–
CC(C)c1noc(C2CCCN(S(C)(=O)=O)CCC(=O)NCC2)n1 (centres undefined)	–	inactive: 2.18%	–
Cc1cc(Cl)ccc1NC(=O)C1CN(S(C)(=O)=O)CC12CCCCC2 (centres undefined)	–	inactive: -19.2%	–
O=C(c1ccc(C(F)(F)F)cc1)N1CCCC2(CC(c3ccccc3)=NO2)C1 (centres undefined)	–	inactive: 7.89%	–
O=C(c1cccc(F)c1)N1CCC2(CCCCO2)CC1	–	–	inactive
O=C(NC1CCCCCC1)c1ccc2nccn2c1	–	inactive: -7% [at 44.1 µM]	–
O=C(O)[C@H]1C[C@H](C(=O)N2CCCC2)CN(Cc2ccncc2)C1	–	inactive: 10.2%	–
Cc1cccc(NC(=O)CSc2nc3ccc(NC(=O)COc4ccc(Cl)cc4)cc3s2)c1	inconclusive: 5.01 µM [inhibitor, partial curve, poor fit]	–	–
CCOc1ccc(CC(=O)N2CCC3(CC2)CC(O)CCO3)cc1 (centres undefined)	inconclusive: 0.158 µM [inhibitor, single point]	–	–
CS(=O)(=O)c1ccc(-c2cnc([C@@H]3COCCN3Cc3ccccc3)[nH]2)cc1	inconclusive: 0.282 µM [inhibitor, full curve, poor fit]	–	–
COC[C@H]1C[C@@H](NC(=O)c2nc3ccccc3s2)[C@H](O)[C@@H]1O	–	inactive: -13.4% [at 44.1 µM]	–
CN(Cc1ccccc1)Cc1nc2c(n1Cc1ccccc1)C(=O)N(CC1CC1)CCN2	inconclusive: 11.2 µM [inhibitor, partial curve, poor fit]	–	–
CS(=O)(=O)N1CCCN(C(=O)CCCc2ccccc2)c2ccccc21	–	inactive: 3.31%	–
CN(Cc1ccc(F)cc1)Cc1cn(-c2ccccc2)nn1	inconclusive: 20 µM [inhibitor, single point]	–	–
O=C(Cn1cccc1-c1nc(-c2ccc(F)cc2)no1)NCc1ccccc1Cl	inconclusive: 8.91 µM [inhibitor, single point]	–	–
CC(=O)N1CCC([C@@H]2CN(C(=O)c3ccc(C#N)cc3)C[C@H]2CO)CC1	–	inactive: 37.1%	–
COc1ccc(CN(C)Cc2ccncc2C)c(OCC(O)CN2CCCC2)c1 (centres undefined)	active: 2.82 µM	–	–
COCc1cc(=O)n(CC(=O)Nc2cccc(Cl)c2)c(N2CCOCC2)n1	–	inactive: -14%	–
COc1ccc(CNC(=O)C2CCN(C(=O)c3ncn4c3COC(c3ccccc3)C4)CC2)cc1 (centres undefined)	inconclusive: 2.82 µM [inhibitor, single point]	–	–
CC(C)(C)c1ccc(CSc2nc3c(c(=O)[nH]2)CCCC3)cc1	inconclusive: 17.8 µM [inhibitor, single point]	–	–
CC1CCN(S(=O)(=O)c2ccc3c(c2)c(=O)c(C(=O)NCc2ccc(Cl)cc2)cn3C)CC1	–	inactive: 50.8%	–
COCCNC(=O)C(C)[C@@H]1CC[C@@]2(C)CC[C@H](N[S+](C)(=O)[O-])[C@@H](C)[C@@H]2[C@H]1O (some centres undefined)	–	inactive: -2.79% [at 44.1 µM]	–

SMILES	Potency	activity, negative = inhibition	outcome
O=c1c(N2CCN(c3cccc(C(F)(F)F)c3)CC2)csc2ccccc12	inconclusive: 15.8 µM [inhibitor, single point]	–	–
COc1ccc(C(=O)NCCn2c(C)cnc2-c2ccncc2)cc1	–	–	inactive
COc1cc(Nc2ncncc2-c2nc(-c3ccccc3)no2)cc(OC)c1OC	inconclusive: 0.316 µM [inhibitor, full curve, poor fit]	–	–
Cc1cn2nc(-c3nc(C4CCCN(C(=O)c5ccc(Cl)cc5)C4)no3)cc2c(=O)[nH]1 (centres undefined)	inconclusive: 20 µM [inhibitor, partial curve, poor fit]	–	–
CN1CC(=O)N(C2CCC2)Cc2c(NCC(C)(C)C)ncnc21	inconclusive: 15.8 µM [inhibitor, single point]	–	–
COCC(=O)N[C@@H]1CN(C(=O)Nc2ccccc2F)CC[C@@H]1c1nc(C)no1	–	–	inactive [at 5.79 µM]
O=C(NCc1ccco1)[C@@H]1Cc2nc[nH]c2CN1Cc1cccs1	–	–	inactive [at 44.1 µM]
Cc1cccc(-c2cccc(CN)c2)c1	active: 11.2 µM	–	–
O=C1c2cnc(-c3ccccc3)nc2OCCN1c1ccccc1	inconclusive: 31.6 µM [inhibitor, single point]	–	–
CCn1cc(C(=O)NCCc2ccc(Cl)cc2)c(=O)c2cc(S(=O)(=O)N3CCc4ccccc4C3)ccc21	inconclusive: 20 µM [inhibitor, single point]	–	–
CCNC(=O)N1CCCC(Cc2noc(-c3ccccc3)n2)C1 (centres undefined)	–	inactive: -24.2%	–
COc1cccc(CNC(=O)[C@@H]2C[C@@H](O)CN2C2CCN(C(=O)Cc3c[nH]c4ccccc34)CC2)c1	inconclusive: 5.01 µM [inhibitor, single point]	–	–
Cc1ccc(CNC(=O)C2CCN(C(=O)c3ccc(-n4ccc5ccccc54)s3)CC2)cc1	inconclusive: 17.8 µM [inhibitor, single point]	–	–
COc1ccc(-c2cn3c(n2)sc2cc(C(=O)NCc4cccs4)ccc23)cc1	inconclusive: 14.1 µM [inhibitor, single point]	–	–
COc1ccc(-c2c3c(=O)n(C)c(=O)n(C)c3cn2-c2cccc(N)c2)cc1	inconclusive: 10 µM [inhibitor, single point]	–	–
Cc1nn2c(c1-c1ccccc1C(C)C)N(Cc1ccc(F)cc1)CCC2	inconclusive: 35.5 µM [inhibitor, single point]	–	–
CCc1ccc(C(=O)N2C[C@@H](CO)[C@H](c3ccccn3)C2)cc1	inconclusive: 0.708 µM [inhibitor, full curve]	–	–
O=C(Nc1ccc(F)cc1)N1CCN(c2ccc3nnc(-c4ccc(F)cc4)n3n2)CC1	inconclusive: 10 µM [inhibitor, partial curve]	–	–
O=C(Cn1nc2c(cc1=O)CCCCC2)Nc1ccc(C(F)(F)F)cc1	inconclusive: 17.8 µM [inhibitor, single point]	–	–
CCOc1ccc(Nc2c(S(=O)(=O)c3ccc(Cl)cc3)cnc3ccc(OC)cc23)cc1	inconclusive: 17.8 µM [inhibitor, single point]	–	–
Cc1cc(C(=O)N[C@H](C)c2onc(C)c2C(=O)O)no1	–	inactive: 15% [at 44.1 µM]	–
CN1c2cc(C(=O)Nc3cc(F)cc(F)c3)ccc2C(=O)N2CCCCCC21 (centres undefined)	active: 4.47 µM	–	–
CC(C)C(=O)N1Cc2ccccc2CC2(CCCN2Cc2ccccn2)C1 (centres undefined)	inconclusive: 10 µM [inhibitor, single point]	–	–
